This note sets out measurements from the BET-seq Pho4 binding data (Le et al. 2018).

This is one part of the list. Values were computed here from the reads of four pooled replicates and scatter widely.

The assay has as its target T1, Pho4 (S. cerevisiae) (UniProt P07270).
T1 sequence: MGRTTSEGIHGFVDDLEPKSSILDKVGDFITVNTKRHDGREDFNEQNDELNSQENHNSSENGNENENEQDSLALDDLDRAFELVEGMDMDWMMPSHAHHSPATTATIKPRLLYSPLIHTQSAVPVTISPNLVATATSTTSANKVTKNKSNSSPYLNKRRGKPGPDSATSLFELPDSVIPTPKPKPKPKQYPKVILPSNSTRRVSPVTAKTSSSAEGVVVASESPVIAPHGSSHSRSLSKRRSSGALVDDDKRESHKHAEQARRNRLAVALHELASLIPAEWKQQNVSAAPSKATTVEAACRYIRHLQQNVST
The assay is described as follows: relative binding free energy (BET-seq); higher = weaker binding. To be noted: reference: library average.
As for GGTTGCACGTGATGAT, the “relative binding free energy” value turned out to be 0.18 kcal/mol. Turning to GGATTCACGTGAAGTG, the “relative binding free energy” value turned out to be 0.57 kcal/mol.

In the case of TCAGTCACGTGGTGAG, the “relative binding free energy” value is 0.14 kcal/mol. As for GTTTCCACGTGGGAGT, the figure is 0.06 kcal/mol; as for TTAGCCACGTGTAGGT, -0.11 kcal/mol. On to CAGATCACGTGTAGTT, for which the “relative binding free energy” value turned out to be 0.19 kcal/mol. For GGTATCACGTGGCGGT, the “relative binding free energy” value is 0.21 kcal/mol. For ATGTACACGTGTTAGC, the “relative binding free energy” value stood at 0.03 kcal/mol. For GGGTACACGTGCGGAA the value was 0.03 kcal/mol. As for TATGTCACGTGATGAC, the figure is 0.33 kcal/mol; as for ACGTACACGTGGTTGG, 0.03 kcal/mol. As for ATCTGCACGTGTAGGA, the figure is 0.03 kcal/mol; as for GGAGACACGTGAGTCG, 0.38 kcal/mol; as for CTAATCACGTGTGTGA, 0.06 kcal/mol. As for GGGTGCACGTGATAAT, the “relative binding free energy” value worked out at 0.22 kcal/mol. For the sequence GATGACACGTGATGGA, the “relative binding free energy” value is 0.27 kcal/mol. Consider CATGACACGTGTTGTA, for which the “relative binding free energy” value is 0.03 kcal/mol.

As to GGAGTCACGTGCTTAG, the “relative binding free energy” value was found to be 0.18 kcal/mol.

Take TGGTGCACGTGGTGAG: the “relative binding free energy” value is -0.07 kcal/mol. In the case of GAGATCACGTGTATGT, the “relative binding free energy” value was 0.3 kcal/mol.

On to GGTACCACGTGTTTTG, for which the “relative binding free energy” value was -0.07 kcal/mol. For GTGGTCACGTGTTAAG the value was 0.15 kcal/mol; for CGTGTCACGTGTAATG, 0.12 kcal/mol; for TGTGTCACGTGGGTTG, -0.04 kcal/mol. As for ACCGTCACGTGGGTGG, the figure is -0.04 kcal/mol. For TTGAGCACGTGGGAAA the value was -0.19 kcal/mol; for AAGTGCACGTGAGGGA, 0.15 kcal/mol; for TGCGGCACGTGGCGTG, -0.19 kcal/mol. Consider ATGGGCACGTGTTCGA, for which the “relative binding free energy” value was -0.06 kcal/mol. In the case of GGTGTCACGTGTTGAT, the “relative binding free energy” value came out at 0.11 kcal/mol.

On to TTAAACACGTGTGTTT, for which the “relative binding free energy” value worked out at 0.06 kcal/mol. As for GTGTACACGTGACGGC, the figure is 0.4 kcal/mol; as for TGTGCCACGTGTAGAG, -0.1 kcal/mol; as for TCGTGCACGTGTGATT, 0.06 kcal/mol.

As to ATTATCACGTGTTCGT, the “relative binding free energy” value was found to be 0.13 kcal/mol. GTGTTCACGTGCTATA: the “relative binding free energy” value turned out to be 0.21 kcal/mol.

For the sequence CGGTACACGTGTAGGA, the “relative binding free energy” value came to 0 kcal/mol. For TGAGGCACGTGGTGCT the value was -0.15 kcal/mol; for ATGGCCACGTGGATTG, -0.1 kcal/mol. For GTTGGCACGTGGCTAG, the “relative binding free energy” value was -0.11 kcal/mol.

As to GGTTGCACGTGTTGTG, the “relative binding free energy” value turned out to be 0.14 kcal/mol. For TCTTTCACGTGGATGG, the “relative binding free energy” value was 0.17 kcal/mol.

With CTGGTCACGTGGCGTA, the “relative binding free energy” value was determined as 0 kcal/mol. As for AAGAGCACGTGGGAAG, the figure is -0.03 kcal/mol; as for TTGTTCACGTGGAATA, 0.27 kcal/mol. For GGGGTCACGTGGGCTC the value was 0.02 kcal/mol; for ATGTTCACGTGGACTT, 0.26 kcal/mol. For ATGATCACGTGGGGGC the value was 0 kcal/mol; for AGGGGCACGTGCTTTG, -0.3 kcal/mol; for GCGGACACGTGGATGG, 0.15 kcal/mol. Consider CTGGGCACGTGGGTAG, for which the “relative binding free energy” value was -0.17 kcal/mol.

As for GCTTTCACGTGAGAGT, the “relative binding free energy” value came to 0.42 kcal/mol. As for GGCTACACGTGGGGAA, the “relative binding free energy” value is 0.09 kcal/mol.

In the case of AAAGTCACGTGATGTT, the “relative binding free energy” value was 0.28 kcal/mol. Regarding TGGCGCACGTGTTGCA, the “relative binding free energy” value came to 0 kcal/mol. For AACGCCACGTGGGGTT the value was -0.11 kcal/mol. As for TTTGTCACGTGAAATG, the figure is 0.34 kcal/mol; as for TAGTGCACGTGTCTGG, -0.13 kcal/mol.

Regarding TCGGACACGTGGTATT, the “relative binding free energy” value is -0.02 kcal/mol. For TACGACACGTGTATGG, the “relative binding free energy” value was determined as 0.05 kcal/mol. As for TAGTTCACGTGTATAG, the figure is 0.14 kcal/mol; as for TTGGCCACGTGGGCTA, -0.21 kcal/mol; as for AGGTACACGTGCGAGT, 0.06 kcal/mol. For GGGGTCACGTGAGCGG the value was 0.3 kcal/mol; for GGGGGCACGTGGAAAC, 0.07 kcal/mol.

On to TGTGACACGTGTTTCA, for which the “relative binding free energy” value stood at 0.04 kcal/mol.

In the case of CTGTACACGTGATTTG, the “relative binding free energy” value is 0.31 kcal/mol. For GGTCTCACGTGGCGTT the value was 0.19 kcal/mol; for AATGGCACGTGTGGAC, -0.04 kcal/mol. In the case of GTTATCACGTGTTCGT, the “relative binding free energy” value is 0.11 kcal/mol. For TGGGACACGTGGTTGT the value was 0.06 kcal/mol.

As for TAGCTCACGTGTAGTG, the “relative binding free energy” value is 0.3 kcal/mol.

For TAACTCACGTGTGTGG, the “relative binding free energy” value is 0.22 kcal/mol. Take GTACTCACGTGTGGTG: the “relative binding free energy” value came to 0.21 kcal/mol. As for CTGCTCACGTGGGTGC, the figure is 0.22 kcal/mol; as for AATTTCACGTGTGGCA, 0.19 kcal/mol; as for AATTGCACGTGAGATA, 0.25 kcal/mol. For the sequence GGATGCACGTGCTGTG, the “relative binding free energy” value was -0.06 kcal/mol. As for CTTGTCACGTGAAGTA, the figure is 0.2 kcal/mol; as for TTGTTCACGTGAACTA, 0.35 kcal/mol; as for CTATTCACGTGTCGGG, 0.3 kcal/mol.

In the case of CTAAGCACGTGTCGGG, the “relative binding free energy” value is 0.02 kcal/mol. For CGGGTCACGTGCATGT the value was -0.05 kcal/mol.

On to AATTGCACGTGATGCG, for which the “relative binding free energy” value was 0.16 kcal/mol. For GGTTACACGTGTGGCA the value was 0.25 kcal/mol.

As for TCGTACACGTGGAGAG, the “relative binding free energy” value was found to be 0.23 kcal/mol. As for GATTGCACGTGGTATG, the figure is -0.07 kcal/mol; as for AACGTCACGTGGTGTT, -0.05 kcal/mol. Consider CTTGTCACGTGATTAG, for which the “relative binding free energy” value turned out to be 0.25 kcal/mol. For CGGGGCACGTGGGACT the value was -0.14 kcal/mol. For ATCGACACGTGTATGG, the “relative binding free energy” value was 0.06 kcal/mol.

Consider CGGAACACGTGAAGGG, for which the “relative binding free energy” value was determined as 0.28 kcal/mol. As for TGTGACACGTGATTTG, the figure is 0.14 kcal/mol; as for ATGGGCACGTGATGGC, 0.05 kcal/mol; as for GTTAACACGTGCGGTT, 0.14 kcal/mol.

With ATTGTCACGTGACTGG, the “relative binding free energy” value turned out to be 0.19 kcal/mol. As for ATAATCACGTGGTTTA, the figure is -0.06 kcal/mol; as for AATTGCACGTGTTTCT, -0.01 kcal/mol. Take GTGAGCACGTGTGGTA: the “relative binding free energy” value was -0.05 kcal/mol. Turning to ATTGGCACGTGGGGTT, the “relative binding free energy” value is -0.15 kcal/mol. For GCGTTCACGTGTTTGT the value was 0.34 kcal/mol. With GGTGACACGTGTTTGA, the “relative binding free energy” value came out at 0.11 kcal/mol.

Regarding TGATGCACGTGCGTGC, the “relative binding free energy” value is -0.09 kcal/mol. For GATGGCACGTGAGTAT the value was 0.15 kcal/mol; for GGAGCCACGTGGGAGG, -0.08 kcal/mol; for GAGGGCACGTGGTGTG, -0.06 kcal/mol.

As for GTAGGCACGTGTGTTC, the “relative binding free energy” value was 0.04 kcal/mol.

On to TCGTTCACGTGAGGTG, for which the “relative binding free energy” value is 0.46 kcal/mol. For AGATGCACGTGGGCGA the value was -0.23 kcal/mol; for GGGTACACGTGAGCTG, 0.24 kcal/mol; for TATTTCACGTGACAGT, 0.21 kcal/mol. With AATGGCACGTGGAGGT, the “relative binding free energy” value was -0.05 kcal/mol. As for TGGGGCACGTGCAAGT, the “relative binding free energy” value was -0.01 kcal/mol.

Consider GGTTACACGTGGCGCT, for which the “relative binding free energy” value was found to be 0.08 kcal/mol. On to TCGGTCACGTGAGCGG, for which the “relative binding free energy” value turned out to be 0.11 kcal/mol.
